Hit rate of the full screen: of about 48,000 compounds, about 550 (1.1%) were called active. Not shown: some 4% with an inconclusive outcome. Cut-off read from the data, not from the text of the source: active = potency below about 15 µM; inconclusive = mostly about 16 µM to 33 µM; inactive = weaker than that. The list shows a part of the results.
What follows are compounds tested against Lysosomal acid glucosylceramidase (Homo sapiens) (UniProt P04062) (assay: Glucocerebrosidase). Details: purified enzyme, resorufin glucoside fluorescence (screen aimed at inhibitors), 20 min; series mostly up to 77 µM.
Chain of UniProt P04062 (P04062 whole entry, looked up): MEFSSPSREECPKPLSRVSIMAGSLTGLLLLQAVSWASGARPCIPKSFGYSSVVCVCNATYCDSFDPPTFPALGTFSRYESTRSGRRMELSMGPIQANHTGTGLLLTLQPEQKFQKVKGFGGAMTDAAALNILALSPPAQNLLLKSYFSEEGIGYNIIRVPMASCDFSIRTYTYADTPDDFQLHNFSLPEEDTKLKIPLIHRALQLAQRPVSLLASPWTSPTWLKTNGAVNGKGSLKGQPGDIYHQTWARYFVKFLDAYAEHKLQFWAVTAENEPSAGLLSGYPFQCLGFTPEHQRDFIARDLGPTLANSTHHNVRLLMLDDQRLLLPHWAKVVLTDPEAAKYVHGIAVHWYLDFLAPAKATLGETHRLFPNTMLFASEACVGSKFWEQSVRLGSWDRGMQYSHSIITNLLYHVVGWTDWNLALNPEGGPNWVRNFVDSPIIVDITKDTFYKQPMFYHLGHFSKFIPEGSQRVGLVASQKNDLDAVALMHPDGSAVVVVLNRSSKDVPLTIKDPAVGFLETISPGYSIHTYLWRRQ
In short: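 Normal human glucocerebrosidase (0.2 nM final) was assayed with resorufin β-D-glucopyranoside (30 uM final) in 50mM citric acid/KH2PO4, 10mM sodium taurocholate, 0.01% tween-20, pH 5.9. Compounds were titrated; fluorescence (Ex 548, Em 600) read after 20 min at RT.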
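Note: the screen sought inhibitors.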
Potency is the fitted concentration of half-maximal effect.

Potency, inactive:
CCOC(=O)Cc1nnc2c(Nc3ccccc3F)nc3nonc3n12 > 76.9 µM
CC1(C)C(=O)C2(CCCC2)C(=O)OC1c1ccco1 (centres undefined) > 76.9 µM
CSc1nc(N2CCOCC2)c2c3c(sc2n1)CCCC3 > 76.9 µM
CCN1CCCC1CNC(=O)CCNC(=O)c1cc(OC)c(OC)c(OC)c1 (centres undefined) > 76.9 µM
Cc1ccc(C(C)C)c(OCCNS(C)(=O)=O)c1 > 76.9 µM
COc1ccc(C(NC(=O)c2ccco2)c2ccc(OC)c(OC)c2)cc1OC > 76.9 µM
O=C(CCNS(=O)(=O)c1cccs1)Nc1ccccc1F > 76.9 µM
CCC(C)[C@H](NC(=O)NCc1ccccc1Cl)C(=O)O (some centres undefined) > 76.9 µM
Nc1cc(=O)[nH]n1C1CCN(c2ccccc2)CC1 > 76.9 µM
COc1ccc2nc(NC(=O)CSc3nc4ccccc4o3)sc2c1 > 76.9 µM
Cc1cc(C)nc(N2CCN(c3nc(C)cc(C)n3)CC2)n1 > 76.9 µM
O=C(O)CCc1nn2c3ccccc3nc2n(-c2ccccc2)c1=O > 76.9 µM
CCOC(=O)CCc1c(C)n(CC)c2cc(-c3ccccc3OC)nn2c1=O > 76.9 µM
CCC(=NC(C)c1ccccc1)c1c(O)n(C)c(=O)n(C)c1=O (centres undefined) > 76.9 µM
CCc1ccc(S(=O)(=O)NCc2cn3cccc(C)c3n2)s1 > 76.9 µM
Cn1c(=O)n(Cc2ccco2)c(=N)c2c3c(sc21)CCC3 > 76.9 µM
Nc1c(NC2CCCCC2)c2ccccc2oc1=O > 76.9 µM
Cc1ccc(-c2nnn(CC(=O)Nc3ccccc3-c3ccccc3)n2)c(-n2cnnn2)c1 > 76.9 µM
CCCNC(=O)c1ccccc1NS(=O)(=O)c1ccc(OC)c(OC)c1
CC(C)CCOc1ccc(C(=O)NCCC(=O)N2CCOCC2)cc1 > 76.9 µM
COc1ccccc1NC(=O)NCC(=O)Nc1ccc(F)c(F)c1 > 76.9 µM
CCN(CC)C(=O)c1sc2nc(-c3ccncc3)[nH]c(=O)c2c1C > 76.9 µM
Cn1c(SCC(=O)c2ccc(F)cc2)nc2cccnc21 > 76.9 µM
COc1ccccc1C(=O)NC(C)C(c1cccs1)N1CCN(C)CC1 (centres undefined) > 76.9 µM
CN(C)c1oc(COc2ccccc2F)nc1C#N > 76.9 µM
CCOc1ccc(-n2c(SCC(=O)NC(C)CC)nc3n[nH]c(C)c3c2=N)cc1 (centres undefined) > 76.9 µM
O=C(COc1ncnc2c(Cl)cc(Cl)cc12)N1CCCCC1 > 76.9 µM
O=C(Nc1sccc1C(=O)N1CCOCC1)c1cccnc1 > 76.9 µM
O=C(CCc1nc(-c2ccccc2F)no1)NC1CCCCCC1 > 76.9 µM
Cn1c(=O)c2cc(NC(=O)c3ccccc3Cl)c(=O)oc2n(C)c1=O > 76.9 µM
O=C1CCCc2nc(NCc3ccco3)ncc21 > 76.9 µM
CCOC(=O)Cc1c(C)nc(-c2ccccc2)[nH]c1=O > 76.9 µM
CCS(=O)(=O)N1CCC(C(=O)NCc2ccc(F)cc2Cl)CC1 > 76.9 µM
Nc1nc(-c2ccccc2)nn1C(=O)Cc1ccccc1 > 76.9 µM
C1CCC(c2nn3c(-c4n[nH]c5c4CCC5)nnc3s2)CC1
N#Cc1nc(-c2ccco2)oc1NCCCn1ccnc1 > 76.9 µM
CCOC(=O)c1ccc(CNC(=O)C2CCCCC2C(=O)OCC(F)(F)F)o1 (centres undefined) > 76.9 µM
Cc1cc(C)cc(OC(=O)N2CCOCC2)c1 > 76.9 µM
COc1cccc(-n2c(SCc3c(C)noc3C)nnc2-c2cccc(S(=O)(=O)N(C)C)c2)c1 > 76.9 µM
Cc1noc(C)c1S(=O)(=O)N1CCC(C(=O)Nc2ccccn2)CC1 > 76.9 µM
O=C(NCCNC(=O)c1ccco1)c1cccc(F)c1 > 76.9 µM
CCCCC(=O)NC1(C(F)(F)F)C(=O)Nc2c1c(=O)[nH]c(=O)n2Cc1ccco1 (centres undefined) > 76.9 µM
CCCCOc1ccc(C2CC(=O)NC2=O)cc1 (centres undefined) > 76.9 µM
O=S(=O)(Cc1ccccc1)N1CCN(C/C=C/c2ccccc2)CC1 > 76.9 µM
CC1(C)CC(=O)C2=C(C1)N(c1cccc(O)c1)C1=C(C2)C(=O)CC(C)(C)C1 > 76.9 µM
Cc1cc(C(=O)OCC(=O)Nc2ncc(C(F)(F)F)cc2Cl)c(C)o1 > 76.9 µM
COc1ccc(OC)c(S(=O)(=O)N2CCC(C(=O)NCCC3=CCCCC3)CC2)c1 > 76.9 µM
CCOC(=O)N1CCN(Cc2nc(-c3ccc(C)cc3)no2)CC1 > 76.9 µM
CCC(NC(=O)c1ccccc1NC(=O)c1ccccc1)C(=O)O (centres undefined) > 76.9 µM
CCCS(=O)(=O)N1CCCC(C(=O)N2CCC(Cc3ccccc3)CC2)C1 (centres undefined) > 76.9 µM
Cc1ccc(-n2c(C)cc3c2CCCC3=O)cc1 > 76.9 µM
CS(=O)(=O)N1CCN(C(=O)c2ccccc2F)CC1 > 76.9 µM
COc1ccc(CC(NC(C)=O)C(=O)NC2CCN(C(=O)Nc3ccc(C#N)cc3)CC2)cc1OC (centres undefined) > 76.9 µM
CCCNC(=O)NCCc1ccncc1 > 76.9 µM
CCCCN(CC)S(=O)(=O)c1ccc(C(=O)Nc2nnc(CSC)o2)cc1
C=CCSc1nnc(C)n1-c1ccc(Cl)cc1 > 76.9 µM
O=C1NC(c2cccs2)Nc2sc3c(c21)CCCC3 (centres undefined) > 76.9 µM
CC1(C)CC(n2c(=S)[nH]c3ccccc3c2=O)CCO1 (centres undefined)
CCOC(=O)CNC(=O)CSc1nnc(-c2ccccc2OC)n1CC > 76.9 µM
O=C(O)CSc1nnc(C2CC2)n1-c1ccccc1 > 76.9 µM
Cc1nn(-c2ccc(C(=O)Nc3nnc(C4CC4)s3)cc2)c(C)c1Cl > 76.9 µM
Cn1c(=O)[nH]c(=O)c2c1nc(Br)n2Cc1ccccc1Cl > 76.9 µM
COC(=O)[C@@H]1C2CCC(C(=O)Nc3ccccc3)(CC2)[C@@H]1C(=O)OC > 76.9 µM
CCCc1ccc(OCCNC(C)=O)cc1 > 76.9 µM
COc1ccc(-c2ccc(C(=S)N3CCN(C(C)=O)CC3)o2)cc1 > 76.9 µM
CCOC(=O)c1cnc(-n2nc(C)cc2C)nc1Nc1cccc(C(=O)O)c1 > 76.9 µM
CC(=O)c1c(C)n(-c2ccccc2)c2ccc(O)cc12 > 76.9 µM
O=S1(=O)CC(O)C(NCc2ccco2)C1 (centres undefined) > 76.9 µM
COc1ccc2nc(NC(=O)c3ccc(Br)s3)sc2c1 > 76.9 µM
c1ccc(/N=C2\N=C(Nc3ccccn3)c3ccccc32)nc1 > 76.9 µM
CCN(CC)C(=O)CSc1nnc(-c2ccccc2)n1-c1ccccc1 > 76.9 µM
CCOC(=O)N1CCN(C(=O)c2ccc3c(=O)n4c(nc3c2)CCCCC4)CC1 > 76.9 µM
COc1ccc2c(c1OC)C(=O)N(c1ccccn1)C2 > 76.9 µM
CCc1cc2c(NCCC(=O)O)nc(C)nc2s1 > 76.9 µM
Cn1c(=O)c2c(nc(Oc3ccc(-c4ccccc4)cc3)n2C)n(C)c1=O > 76.9 µM
Cc1ccc(F)cc1NC(=O)C1CCCN(c2ncccn2)C1 (centres undefined) > 76.9 µM
CCOC(=O)Cc1nn(C)c(=O)c2ccccc12 > 76.9 µM
C=CCNC(=O)c1ccccc1NS(=O)(=O)c1ccccc1 > 76.9 µM
O=C(CC1SCCNC1=O)Nc1cccc(Cl)c1 (centres undefined) > 76.9 µM
COn1c(-n2nc(C)cc2C)nc2ccccc2c1=O > 76.9 µM
COC(=O)c1nnn(-c2nonc2N)c1CSCCO > 76.9 µM
CCCn1cc(NC(=O)c2cc3n(n2)C(C(F)(F)F)CC(c2ccccc2)N3)cn1 (centres undefined) > 76.9 µM
COc1ccc(CN(C(=O)c2ccccc2OC)C2CCS(=O)(=O)C2)cc1 (centres undefined) > 76.9 µM
Cc1sc2ncnc(Sc3nnc4sc5ccccc5n34)c2c1C > 76.9 µM
COCCCNC(=O)CC(NS(=O)(=O)c1ccc(OC)cc1)c1ccc(OC)cc1 (centres undefined) > 76.9 µM
O=C(OCCN1C(=O)c2ccccc2C1=O)c1cc(S(=O)(=O)N2CCOCC2)ccc1Cl > 76.9 µM
CN1CCN(CCN2CCn3c2nc2ccccc23)CC1 > 76.9 µM
O=C(c1ccccc1)c1ccc(Oc2ncccn2)cc1 > 76.9 µM
O=C(O)CSc1nnc(CNc2ccc(Cl)cc2)n1Cc1ccccc1 > 76.9 µM
CCn1cc(C(=O)OCc2ccccc2)c(=O)c2ccc(C)nc21 > 76.9 µM
COc1cccc(N2CCN(C(=O)c3[nH]c(C)c(C(C)=O)c3C)CC2)c1 > 76.9 µM
OC(CN1CCOCC1)CN(c1ccccc1)c1ccccc1 (centres undefined)
Cc1ccc(S(=O)(=O)NCC(=O)OCC(=O)N2CCc3ccccc32)cc1 > 76.9 µM
COc1cc(OC)c(C(=O)COc2ncnc3ccccc23)c(OC)c1 > 76.9 µM

From PubChem BioAssay AID360 (National Center for Advancing Translational Sciences (NCATS), 2006)
